# Laboratory results published in PubChem BioAssay AID1030 (National Center for Advancing Translational Sciences (NCATS), 2008).
# Hit rate of the full screen: of about 220,000 compounds, about 16,000 (7.3%) were called active. The shares of active, inactive and inconclusive entries below differ from those in the screen. Calls come from the whole dose curve; as a rule, active = well fitted inhibition curve with a large enough effect (not every such curve was filed as active); inconclusive = small, poorly fitted or top-dose-only effect, or another doubt; inactive = no such curve, though single readings can be large or run the other way. Potencies of inconclusive entries are left out as doubtful fits.
# Molecular target: Aldehyde dehydrogenase 1A1 (Homo sapiens) (UniProt P00352)
# Experiment: qHTS Assay for Inhibitors of Aldehyde Dehydrogenase 1 (ALDH1A1)
# Conditions: Purified ALDH1A1, NADH fluorescence, propionaldehyde substrate; series mostly up to 75.3 µM
# Potency is the fitted concentration of half-maximal effect; tags give direction and shape of the fitted curve.
# UniProt P00352, sequence (P00352 whole entry, looked up): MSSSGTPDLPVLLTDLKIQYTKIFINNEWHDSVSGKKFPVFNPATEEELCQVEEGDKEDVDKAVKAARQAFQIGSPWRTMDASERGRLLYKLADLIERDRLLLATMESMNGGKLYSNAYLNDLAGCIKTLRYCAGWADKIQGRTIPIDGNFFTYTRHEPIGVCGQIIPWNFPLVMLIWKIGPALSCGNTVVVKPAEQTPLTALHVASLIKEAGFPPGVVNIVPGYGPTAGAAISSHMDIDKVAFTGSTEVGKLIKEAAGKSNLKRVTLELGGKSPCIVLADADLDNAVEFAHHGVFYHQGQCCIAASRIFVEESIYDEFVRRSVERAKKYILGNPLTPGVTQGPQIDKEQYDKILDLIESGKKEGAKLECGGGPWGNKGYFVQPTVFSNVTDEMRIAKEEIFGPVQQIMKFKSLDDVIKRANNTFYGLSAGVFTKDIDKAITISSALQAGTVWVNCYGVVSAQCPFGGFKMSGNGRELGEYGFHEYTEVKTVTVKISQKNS
row,SMILES,Potency
1,Fc1ccc(Nc2ncncc2-c2ccoc2)cc1,"inconclusive [inhibitor, partial curve]"
2,COc1ccc(CN(C(=O)c2snc(C(N)=O)c2N)C(C(=O)NC(C)(C)C)c2ccco2)cc1 (configuration not stated),"inconclusive [inhibitor, single point]"
3,NC(=O)c1cc2ccc(O)cc2oc1=NCc1ccccc1,"inconclusive [inhibitor, partial curve]"
4,CCN(CC)C(=O)c1sc(NC(=O)c2ccco2)c(C#N)c1C,inactive
5,CCOC(=O)N1CCN(C(=O)c2cn(C)c(=O)c3c2c2ccccc2n3C)CC1,"inconclusive [inhibitor, single point]"
6,COC(=O)c1ccc(NC(=S)Nc2ccc(O)cc2)cc1,"inconclusive [inhibitor, single point]"
7,Cc1ccc(S(=O)(=O)N/N=C2/CCCCC2C2CCCCC2)cc1[N+](=O)[O-] (configuration not stated),active: 35.5 µM
8,O=C(CN1CCCCC1)Nc1nnc(-c2ccccc2)s1,inactive
9,Cn1c(=O)c2c(ncn2Cc2ccccc2)n(C)c1=O,inactive
10,COc1ccc(C(=O)NCc2cn3ccccc3n2)cc1,"inconclusive [inhibitor, single point]"
11,CC(C)c1ccccc1NC(=O)c1ccc(CN(c2ccccc2)S(=O)(=O)c2ccccc2)cc1,inactive
12,NC(=O)C1CCN(c2ccc([N+](=O)[O-])cc2Cl)CC1,active: 20 µM
13,FC(F)Oc1ccc(NC(=S)Nn2cnnc2)cc1,active: 7.94 µM
14,COc1ccc(-c2cc3nc4n(c(=O)c3s2)CCC4)cc1,"inconclusive [inhibitor, partial curve]"
15,O=C(Nc1ccc(S(=O)(=O)Nc2ncccn2)cc1)c1cccc(S(=O)(=O)N2CCOCC2)c1,inactive
16,Cc1ccccc1N(CC(=O)Nc1ccccc1C(=O)NCc1ccco1)S(=O)(=O)c1ccccc1,"inconclusive [inhibitor, single point]"
17,CC(=O)Nc1sc(C)c(C)c1C(=O)OC(C)C,active: 22.4 µM
18,COc1ccccc1Nc1ccncc1[N+](=O)[O-],inactive
19,Cc1ccc(OS(=O)Nc2cccc3nccnc23)cc1 (configuration not stated),"inconclusive [inhibitor, single point]"
20,O=C(CSCc1cccs1)N1CCCC1,"inconclusive [inhibitor, single point]"
21,CSc1ccc(CN(C)CC(=O)NC(C)c2ccccc2)cc1 (configuration not stated),"inconclusive [inhibitor, partial curve, poor fit]"
22,COc1ccc(C(=O)n2nc(-c3ccccc3)nc2N)cc1OC,inactive
